Results as given in PubChem BioAssay AID1745853 (National Center for Advancing Translational Sciences (NCATS), 2022).
The other results are listed elsewhere or left out. Shown are side measurements of this screen, not its main read-out; they come without a call.

How the values were obtained:
Experiment in all cases: Primary Screen for Target Class Profiling of Small Molecule Inhibitors of Methyltransferases
[1] = molecular target: Glycine N-methyltransferase (Homo sapiens) (UniProt Q14749); conditions: purified enzyme, MTase-Glo SAH luminescence; measured here: GNMT inhibition; at 40 µM; stronger effect = lower value
Method in brief: (§1)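 Each enzyme was reacted with SAM and its substrate, with compounds tested once at 40 uM; SAH formed was read by MTase-Glo luminescence.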

[2] = molecular target: Guanidinoacetate N-methyltransferase (Homo sapiens) (UniProt Q14353); conditions: purified enzyme, MTase-Glo SAH luminescence; measured here: GAMT inhibition; at 40 µM; stronger effect = lower value
Method in brief: as §1

[3] = molecular target: Histamine N-methyltransferase (Homo sapiens) (UniProt P50135); conditions: purified enzyme, MTase-Glo SAH luminescence; measured here: HNMT inhibition; at 40 µM; stronger effect = lower value
Method in brief: as §1

[4] = molecular target: Nicotinamide N-methyltransferase (Homo sapiens) (UniProt P40261); conditions: purified enzyme, MTase-Glo SAH luminescence; measured here: NNMT inhibition; at 40 µM; stronger effect = lower value
Method in brief: as §1

[5] = molecular target: Phenylethanolamine N-methyltransferase (Homo sapiens) (UniProt P11086); conditions: purified enzyme, MTase-Glo SAH luminescence; measured here: PNMT inhibition; at 40 µM; stronger effect = lower value
Method in brief: as §1
% is set by controls: 0 for no effect and ±100 for the full control effect.

CCOCCOc1cccc(C(=O)N2C[C@@H](N(C)C)[C@H](C(C)C)C2)c1
activity change, negative = inhibition [1]: -4.33%
activity change, negative = inhibition [2]: -4.5%
activity change, negative = inhibition [3]: -1.37%
activity change, negative = inhibition [4]: -6.96%
activity change, negative = inhibition [5]: -7.18%

CC(C)OCCCn1c(=O)c2ccccc2n2c(SCc3c(F)cccc3Cl)nnc12
activity change, negative = inhibition [1]: -3.76%
activity change, negative = inhibition [2]: 0%
activity change, negative = inhibition [3]: 0.544%
activity change, negative = inhibition [4]: -13.1%
activity change, negative = inhibition [5]: 0.012%

CC1(COCC2CC2)COc2ccc(C(=O)Nc3cccc([S+](C)(=O)[O-])c3)cc2N1 (centres undefined)
activity change, negative = inhibition [1]: -6.75%
activity change, negative = inhibition [2]: -1.4%
activity change, negative = inhibition [3]: -6.22%
activity change, negative = inhibition [4]: -5.34%
activity change, negative = inhibition [5]: -6.69%

Cc1ccc(C(=O)Nc2ccc(CN3CCN(C)CC3)c(C(F)(F)F)c2)cc1C#Cc1cnc2cccnn12
activity change, negative = inhibition [1]: -19.7%
activity change, negative = inhibition [2]: 5.48%
activity change, negative = inhibition [3]: -14%
activity change, negative = inhibition [4]: -16.6%
activity change, negative = inhibition [5]: -2.25%

c1ccc2c(c1)CCC[C@H]2Nc1nc2ccccc2[nH]1
activity change, negative = inhibition [1]: 3.46%
activity change, negative = inhibition [2]: 14.1%
activity change, negative = inhibition [3]: 1.45%
activity change, negative = inhibition [4]: -5.19%
activity change, negative = inhibition [5]: 8.87%

O=C(c1ccccc1F)N1CC2(C1)C(=O)Nc1ccccc12
activity change, negative = inhibition [1]: -4.02%
activity change, negative = inhibition [2]: -3.66%
activity change, negative = inhibition [3]: -0.627%
activity change, negative = inhibition [4]: -7.91%
activity change, negative = inhibition [5]: -5.32%

CCC(C)NC(=O)Cn1nc2n(Cc3ccccc3)c(=O)c3ccc(C(=O)NC4CCCC4)cc3n2c1=O (centres undefined)
activity change, negative = inhibition [1]: -5.28%
activity change, negative = inhibition [2]: -0.225%
activity change, negative = inhibition [3]: -0.407%
activity change, negative = inhibition [4]: -8.53%
activity change, negative = inhibition [5]: -3.29%

CCc1cc2c(cc3n2CC(C)(C(=O)NC2CCCCCC2)N(C(C)c2ccccc2)C3=O)s1 (centres undefined)
activity change, negative = inhibition [1]: -0.792%
activity change, negative = inhibition [2]: 3.06%
activity change, negative = inhibition [3]: -3.09%
activity change, negative = inhibition [4]: -1.41%
activity change, negative = inhibition [5]: -5.97%

CCO[C@H]1CN(C2CCC(O)(c3ccc4c(c3)OCO4)CC2)C[C@@H]1NC(=O)CNC(=O)c1cccc(C(F)(F)F)c1 (some centres undefined)
activity change, negative = inhibition [1]: 3.75%
activity change, negative = inhibition [2]: -1.67%
activity change, negative = inhibition [3]: 0.197%
activity change, negative = inhibition [4]: -17.2%
activity change, negative = inhibition [5]: -7.79%

COc1ccc(O[C@H]2COCCN(C(=O)C3CCCC3)C2)cc1
activity change, negative = inhibition [1]: -4.67%
activity change, negative = inhibition [2]: -5.93%
activity change, negative = inhibition [3]: -2.36%
activity change, negative = inhibition [4]: -8.95%
activity change, negative = inhibition [5]: -2.71%

CCOC(=O)c1c(C)c2n(c1C)CC(C)(C(=O)NC1CCCCCC1)N(Cc1ccc(Cl)cc1)C2=O (centres undefined)
activity change, negative = inhibition [1]: -1.41%
activity change, negative = inhibition [2]: 3.57%
activity change, negative = inhibition [3]: -4.29%
activity change, negative = inhibition [4]: 0.003%
activity change, negative = inhibition [5]: -0.605%

COc1ccccc1C(=O)Nc1cc2c(cc1N1CCCCC1)n(C)c(=O)n2C
activity change, negative = inhibition [1]: -12.8%
activity change, negative = inhibition [3]: -2.87%
activity change, negative = inhibition [4]: 5.02%
activity change, negative = inhibition [5]: 38.1%

C[C@@H]1C[C@H](C)CN(CCC(=O)Nc2ccc(Br)cc2)C1
activity change, negative = inhibition [1]: -1.57%
activity change, negative = inhibition [2]: -5.13%
activity change, negative = inhibition [3]: -24%
activity change, negative = inhibition [4]: -16%
activity change, negative = inhibition [5]: -15.6%

CN1C(=O)c2cc(C(=O)NCc3ccc(F)cc3)nn2CC1(C)C(=O)NC1CCCCCC1 (centres undefined)
activity change, negative = inhibition [1]: 2.39%
activity change, negative = inhibition [2]: 0.295%
activity change, negative = inhibition [3]: 2.93%
activity change, negative = inhibition [4]: 0.452%
activity change, negative = inhibition [5]: -0.542%

COc1cccc(NC(=O)CCC2CCN(C(=O)C(C)n3cncn3)CC2)c1 (centres undefined)
activity change, negative = inhibition [1]: -1.57%
activity change, negative = inhibition [2]: -0.402%
activity change, negative = inhibition [3]: 0.118%
activity change, negative = inhibition [4]: 1.56%
activity change, negative = inhibition [5]: 9.47%

COC[C@H]1C[C@@H](NCc2cccc3c2OCO3)[C@H](O)[C@@H]1O
activity change, negative = inhibition [1]: 1.17%
activity change, negative = inhibition [2]: 1.32%
activity change, negative = inhibition [3]: 3.63%
activity change, negative = inhibition [4]: -4.42%
activity change, negative = inhibition [5]: 7.22%

O=C(NCc1nc(-c2cccc(F)c2)c(-c2ccccn2)[nH]1)C1CCOC1 (centres undefined)
activity change, negative = inhibition [1]: -4.91%
activity change, negative = inhibition [2]: -1.45%
activity change, negative = inhibition [3]: 1.58%
activity change, negative = inhibition [4]: -1.65%
activity change, negative = inhibition [5]: -0.307%
